Experimental data from PubChem BioAssay AID485360 (National Center for Advancing Translational Sciences (NCATS), 2010).
Hit rate of the full screen: of about 230,000 compounds, about 1,500 (0.65%) were called active. This list was built around the results that the source calls inconclusive (neither active nor inactive); the mix of calls is not that of the screen. Calls come from the whole dose curve; as a rule, active = well fitted inhibition curve with a large enough effect; inconclusive = small, poorly fitted or top-dose-only effect; inactive = no such curve, though single readings can be large or run the other way. Potencies beside an inconclusive call are fits to weak or partial responses and may not hold up.

target: Lethal(3)malignant brain tumor-like protein 1 (Homo sapiens) (UniProt Q9Y468); assay: qHTS Assay for the Inhibitors of L3MBTL1; details: AlphaScreen L3MBTL1–H3K9me1 peptide binding; activity, negative = inhibition: at 57.1 µM (top of the series); note: nearly all actives have a fitted effect of over 60% in size
How it was run: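 Displacement of a biotinylated histone H3(1-15) peptide monomethylated at Lys9 (75 nM) from L3MBTL1 (50 nM) was measured by AlphaScreen after a 30 min room-temperature compound incubation; cefsulodin titration served as intraplate control.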
% is set by controls: 0 for no effect and ±100 for the full control effect; potency is the fitted concentration of half-maximal effect; tags give direction and shape of the fitted curve.

UniProt Q9Y468, sequence (Q9Y468 whole entry, looked up): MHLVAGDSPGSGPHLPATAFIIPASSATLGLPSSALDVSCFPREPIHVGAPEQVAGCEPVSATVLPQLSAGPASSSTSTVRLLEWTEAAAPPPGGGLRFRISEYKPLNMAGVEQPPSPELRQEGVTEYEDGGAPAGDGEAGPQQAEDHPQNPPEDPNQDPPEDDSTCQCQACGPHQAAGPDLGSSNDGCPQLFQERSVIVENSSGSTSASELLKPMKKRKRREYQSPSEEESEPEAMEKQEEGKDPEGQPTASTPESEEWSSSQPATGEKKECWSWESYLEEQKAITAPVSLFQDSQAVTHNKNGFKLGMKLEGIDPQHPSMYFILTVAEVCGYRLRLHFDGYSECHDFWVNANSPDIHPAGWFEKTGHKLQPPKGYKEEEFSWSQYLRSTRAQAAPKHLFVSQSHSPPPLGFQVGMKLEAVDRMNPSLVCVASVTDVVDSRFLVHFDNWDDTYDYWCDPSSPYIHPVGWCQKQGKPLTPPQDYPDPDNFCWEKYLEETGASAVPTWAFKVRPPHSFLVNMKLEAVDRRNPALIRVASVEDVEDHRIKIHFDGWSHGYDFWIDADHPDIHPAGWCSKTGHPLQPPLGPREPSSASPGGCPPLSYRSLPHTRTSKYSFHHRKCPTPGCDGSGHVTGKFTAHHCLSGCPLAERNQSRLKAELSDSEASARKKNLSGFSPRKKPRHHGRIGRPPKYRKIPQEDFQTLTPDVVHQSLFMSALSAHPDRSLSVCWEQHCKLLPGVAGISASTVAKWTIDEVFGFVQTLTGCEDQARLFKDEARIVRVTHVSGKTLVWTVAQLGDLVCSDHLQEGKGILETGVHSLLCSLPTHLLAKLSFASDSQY

Row | Compound | activity, negative = inhibition | Potency
1 | Brc1ccc(C2=CC(c3cccs3)n3ncnc3N2)cc1 (stereo unspecified) | inactive: -2.45% | –
2 | CNc1ccc(/C=C/C(=O)c2ccc3c(c2)OCCO3)cc1[N+](=O)[O-] | – | inconclusive: 25.1 µM [inhibitor, single point]
3 | Cc1c(-n2c(SCC(=O)N(C)C3CCS(=O)(=O)C3)nc3ccccc3c2=O)c(=O)n(-c2ccccc2)n1C (stereo unspecified) | – | inconclusive: 17.8 µM [inhibitor, partial curve, poor fit]
4 | CC1CN(C(=O)COC(=O)CSc2ccc([N+](=O)[O-])cc2)CC(C)O1 (stereo unspecified) | inactive: 5.12% | –
5 | O=C(CCN1C(=O)/C(=C/C=C/c2ccccc2)SC1=S)Nc1nccs1 | inactive: -1.54% | –
6 | c1ccc(CNc2ccc(N3CCOCC3)cc2)cc1 | – | inconclusive: 39.8 µM [inhibitor, single point]
7 | Cc1ccc(CCNC(=O)c2c[nH]c3ccc(S(=O)(=O)Nc4ccc(C)cc4C)cc3c2=O)cc1 | – | inconclusive: 17.8 µM [inhibitor, partial curve]
8 | O=C1CCCN1c1ccc(S(=O)(=O)Oc2ccc(Cl)cc2)cc1[N+](=O)[O-] | – | inconclusive: 39.8 µM [inhibitor, single point]
9 | CCOC(=O)C1=C(C)NC(C)=C(C(=O)OCC)C1C | inactive: 14.2% | –
10 | Cc1cccc(N/N=C/c2ccc(O)c(O)c2O)c1 | – | inconclusive: 0.631 µM [inhibitor, full curve, poor fit]
11 | C=CCn1c(SCC(=O)c2ccc(O)c(O)c2)nnc1-c1cccc(Cl)c1 | – | inconclusive: 25.1 µM [inhibitor, partial curve]
12 | COc1ccc(-c2nnc(SCC(=O)Nc3cc(C)on3)o2)cc1 | – | inconclusive: 35.5 µM [inhibitor, single point]
13 | COC(=O)c1cc(-c2ccc(S(=O)(=O)N3CCCCC3)cc2)c(C(F)(F)F)s1 | – | inconclusive: 8.91 µM [inhibitor, single point]
14 | Cn1nc(C(=O)OCC(=O)Nc2ccc(F)cc2Cl)c2ccccc2c1=O | inactive: -1.88% | –
15 | O=c1[nH]c2cc3c(cc2cc1CN(Cc1ccccc1)Cc1nnnn1Cc1ccco1)OCCO3 | – | inconclusive: 25.1 µM [inhibitor, single point]
16 | CCn1c(=O)c(C(=O)NCCCO)c(O)c2ccccc21 | inactive: 3.75% | –
17 | CN(C)c1nnnn1-c1ccc(Cl)cc1Cl | – | inconclusive: 3.55 µM [inhibitor, partial curve]
18 | CC(=O)c1sc(C(=O)O)c(-c2ccco2)c1-c1ccco1 | – | inconclusive: 28.2 µM [inhibitor, single point]
19 | C(=N\n1c2ccccc2c2ccccc21)/c1ccccc1 | inactive: -11.2% | –
20 | COc1ccc(-c2nc(CCNC(=O)c3cccs3)cs2)cc1 | – | inconclusive: 39.8 µM [inhibitor, single point]
21 | Cc1cccc(CN2CCCC(C(=O)c3ccc4c5c(cccc35)CC4)C2)n1 (stereo unspecified) | – | inconclusive: 15.8 µM [inhibitor, partial curve]
22 | Nc1n[nH]c(C2CC2)c1N=Nc1ccc(Cl)c(Cl)c1 | – | inconclusive: 25.1 µM [inhibitor, single point]
23 | Cc1oc(-c2ccccc2)cc1C(=O)Nc1ccc(N(C)C)cc1 | – | inconclusive: 31.6 µM [inhibitor, single point]
24 | COc1ccc(C(=O)NCc2oc(-c3ccccc3)cc2C(=O)O)cc1 | inactive: -2.58% [at 11.4 µM] | –

Row | Compound | activity, negative = inhibition | Potency
25 | O=S(=O)(Nc1cc(Sc2cccc3cccnc23)c(O)c2ccccc12)c1ccccc1 | – | inconclusive: 35.5 µM [inhibitor, single point]
26 | CCOc1ccc(C(=O)CCN2CCCCC2)cc1 | – | inconclusive: 3.98 µM [inhibitor, full curve]
27 | N#C/C(=C\c1ccncc1)c1nc2ccccc2c(=O)[nH]1 | – | inconclusive: 0.316 µM [inhibitor, full curve, poor fit]
28 | COc1ccc(OC)c(C2NC(=O)c3sc(=S)n(-c4ccccc4)c3N2)c1 (stereo unspecified) | – | inconclusive: 5.01 µM [inhibitor, partial curve]
29 | Oc1cc(Nc2cccnc2)cc2cccnc12 | – | active: 31.6 µM
30 | O=C(CSc1nc2nc(-c3cccs3)cc(C(F)(F)F)c2c(=O)[nH]1)Nc1ccc(F)c(F)c1 | – | active: 28.2 µM
31 | COc1ccc(/C=C2/SC(=O)N(CC(=O)Nc3cc(C)on3)C2=O)cc1OC | – | inconclusive: 6.31 µM [inhibitor, single point]
32 | Cc1oc(C(=O)O)cc1CSCc1ccoc1C(=O)O | – | inconclusive: 31.6 µM [inhibitor, single point]
33 | Cn1cc(C(=O)N/N=C/c2c(O)ccc3ccccc23)ccc1=O | – | inconclusive: 0.794 µM [inhibitor, full curve, poor fit]
34 | CC(=O)NS(=O)(=O)c1ccc(NC(=O)/C=C/c2ccc(C)o2)cc1 | – | inconclusive: 39.8 µM [inhibitor, single point]
35 | N=C1/C(=C\c2ccc(OC(=O)c3ccc(F)cc3)cc2)C(=O)N=C2SC(N3CCCC3)=NN12 | – | inconclusive: 39.8 µM [inhibitor, single point]
36 | COC(=O)c1ccc(CN2CCCCC2)cc1 | inactive: 7.2% | –
37 | COC(=O)c1cc(OC)c(OC)cc1NCC(=O)Nc1ccc(OC)c(OC)c1 | – | inconclusive: 0.794 µM [inhibitor, single point]
38 | N=c1nc(SCCC(=O)O)ss1 | inactive: 4.84% | –
39 | O=C(NCc1ccccc1)C1=C[C@@H](c2coc3ccccc3c2=O)C[C@@H](OCCCCO)O1 | – | inconclusive: 1.26 µM [inhibitor, full curve, poor fit]
40 | CCOc1ccc2nc(NC(=O)CN3C(=O)NC4(CCCC4)C3=O)sc2c1 | inactive: -0.535% | –
41 | O=C(NCc1ccccn1)c1coc(=O)c(Br)c1 | – | active: 14.1 µM
42 | O=C(N/N=C/c1ccccn1)c1ccc(Br)cc1 | inactive: -2.56% | –
43 | Cc1c(CN(C)CCc2ccccc2)c(=O)n(-c2ccccc2)n1C | inactive: -2.81% | –
44 | CC(=O)c1cc2c(cc1NC(=O)CN1CCN(c3cccc(C(F)(F)F)c3)CC1)OCO2 | – | inconclusive: 6.31 µM [inhibitor, single point]
45 | COc1ccc(-c2cc(=O)n(-c3nc4ccccc4[nH]3)[nH]2)cc1 | – | inconclusive: 39.8 µM [inhibitor, single point]
46 | Cc1ccc(S(=O)(=O)CCc2nnc(NC(=O)c3ccccn3)s2)cc1 | – | inconclusive: 4.47 µM [inhibitor, single point]
47 | CCOC(=O)N1CCN(C(=O)CSc2ccc(-c3ccccc3)nn2)CC1 | – | inconclusive: 0.112 µM [inhibitor, full curve, poor fit]
48 | O=C(CSc1nn(-c2ccc(Cl)cc2)c(=S)s1)NCC1CCCO1 (stereo unspecified) | – | inconclusive: 3.55 µM [inhibitor, partial curve]

Row | Compound | activity, negative = inhibition | Potency
49 | Cc1cc(C)c2c(c1)-c1c(ssc1=S)C(C)(C)N2C(=O)CN1C(=O)c2ccccc2C1=O | – | inconclusive: 15.8 µM [inhibitor, partial curve]
50 | Cc1cc[n+](-c2[nH]c(=O)sc2/C=N/NC([S-])=Nc2ccccc2)cc1 | – | inconclusive: 31.6 µM [inhibitor, single point]
51 | O=C(Nc1ccc(Cl)c(Cl)c1)c1ccccc1 | inactive: 8.81% | –
52 | C/C(=N\N(C)C)C1=C(O)c2ccccc2C1=O | inactive: 2.84% | –
53 | Cc1cccc(NC(=O)c2sc3nc(-c4ccc(F)cc4)cn3c2C)n1 | inactive: 9.22% | –
54 | Cn1c(Cn2c(=O)sc3ccccc32)nnc1SCC(=O)N1CCOCC1 | – | inconclusive: 4.47 µM [inhibitor, single point]
55 | O=C(NCc1ccccc1)C1=C[C@H](c2ccc(C(F)(F)F)cc2)C[C@H](OCc2ccc(CO)cc2)O1 | – | inconclusive: 39.8 µM [inhibitor, single point]
56 | O=C(NCc1ccco1)C12CN(Cc3ccccc3)CC1C(c1ccc([N+](=O)[O-])cc1)=NO2 (stereo unspecified) | – | inconclusive: 25.1 µM [inhibitor, single point]
57 | CCCCNC(=S)Nc1cccc2cnccc12 | inactive: -4.16% | –
58 | CCOC(=O)CNC(=O)CSc1ncnc2c1cnn2-c1ccccc1 | – | inconclusive: 6.31 µM [inhibitor, single point]
59 | Cc1cc(C(=O)COC(=O)c2ccc(Cl)c(S(N)(=O)=O)c2)c(C)n1C1CC1 | – | inconclusive: 39.8 µM [inhibitor, single point]
60 | Oc1c(C=Nc2ccccc2Cl)[nH]c2ccccc12 | inactive: -1.14% | –
61 | COc1ccc(CS(=O)(=O)c2nc(C)cc(C)c2S(C)(=O)=O)cc1 | – | inconclusive: 3.98 µM [inhibitor, single point]
62 | COc1cnn(-c2ccc(C)cc2)c(=O)c1Br | – | inconclusive: 0.631 µM [inhibitor, full curve, poor fit]
63 | Cc1csc(C(C#N)C(=O)c2ccncc2)n1 (stereo unspecified) | – | inconclusive: 25.1 µM [inhibitor, single point]
64 | O=C1/C(=C\c2ccco2)SC(=S)N1C1CCS(=O)(=O)C1 (stereo unspecified) | – | inconclusive: 31.6 µM [inhibitor, single point]
65 | COCCNC(=S)N(c1ccccc1)C(C)C | inactive: -5.56% [at 11.4 µM] | –
66 | COc1ccc2oc(C)c(C(=O)c3ccc([N+](=O)[O-])cc3)c2c1 | – | inconclusive: 14.1 µM [inhibitor, partial curve]
67 | CS(=O)(=O)c1ccc2nc(NC(=O)Nc3cccc(Cl)c3)sc2c1 | inactive: 10.9% | –
68 | O=C(CSc1nnc(-c2cccnc2)n1C1CCCCC1)NC1CCCCC1 | inactive: 17.1% | –
69 | COc1ccc2cc(C3(C)NC(=O)N(CC(=O)Nc4c(C)n(C)n(-c5ccccc5)c4=O)C3=O)ccc2c1 (stereo unspecified) | inactive: -3.48% | –
70 | Cc1ccc(N2C(=O)[C@@H]3C(c4cccnc4)=NO[C@@H]3C2=O)c(C)c1 | inactive: 2.13% | –
71 | CCN(CC)S(=O)(=O)c1ccc(N/N=C/c2ccc(OC)c(OC)c2OC)nc1 | – | inconclusive: 0.631 µM [inhibitor, full curve, poor fit]
